Experimental data: ChEMBL document CHEMBL4888484, “Replenishing the malaria drug discovery pipeline: Screening and hit evaluation of the MMV Hit Generation Library 1 (HGL1) against asexual blood stage Plasmodium falciparum ,using a nano luciferase reporter read-out” (2022)
The campaign covered roughly 150,000 compounds. About 540 (0.36%) showed an effect of 50% or more. The list shows a part of the results.

System: Plasmodium falciparum
Test: Primary screen in NF54 nanoGlo assay, in single point, at 2uM, 72h; a lower Z score goes with more inhibition
Assay type: functional, Erythrocyte
Details: timepoint 72 hour

Row | SMILES | % Inhibition [%] | Z score
1 | CC(=O)N[C@H]1CN(Cc2ccc(F)cc2Cl)C[C@@H]1c1ccc(C)cc1 | -6 | 1.2
2 | Cn1nc(CNC(=O)[C@H]2CCc3nnnn3CC2)cc1C(F)(F)F | 10 | -1.38
3 | COC(=O)N1CCC[C@@]2(CCC(=O)N(CCc3ccccc3)C2)C1 | -7 | 1.5
4 | CCC[C@H]1CCCN1C(=O)c1cccc(S(=O)(=O)NCc2ccncn2)c1 | 4 | -0.76
5 | CC(C)C1=NO[C@H](C(=O)NCCc2ccncc2)C1 | -18 | 2.34
6 | O=C(NCCNC(=O)c1ccccc1Cl)c1cc2ccccc2cc1O | -16 | 2.25
7 | O=C(COc1ccccc1)Nc1ccc(S(=O)(=O)N(Cc2ccccc2)c2ccccc2)cc1 | 14 | -1.68
8 | NS(=O)(=O)c1ccc(-c2ccncc2)c(F)c1 | -1 | 0.11
9 | O=C(Nc1ccnn1Cc1ccc(Cl)cc1)C1=NN(c2ccccc2)C(=O)CC1 | -2 | 0.39
10 | CC(C)c1cccc(C(=O)N2C[C@@H](C)N(C)[C@@H](C)C2)n1 | 6 | -0.85
11 | O=C(Nc1ccccc1Cc1ccccc1)c1ccc2ccccc2n1 | -1 | 0.14
12 | Nc1nc2scc(-c3ccc4c(c3)CC(=O)N4)n2n1 | -5 | 0.58
13 | O=C1CCC2(CCN(C/C=C/c3ccccc3)CC2)CN1CCc1c[nH]cn1 | -6 | 1.12
14 | O=C([C@H](O)c1ccc2ccccc2c1)N1C[C@H](CO)C[C@H](CO)C1 | -20 | 1.95
15 | Cc1cc(OCCOc2cccc(S(C)(=O)=O)c2)nn1C | 35 | -3.93
16 | Cc1ccc(-n2nc(CN3CCOCC3)c(-c3ccccc3)c2N)cc1 | -21 | 2.45
17 | COCC(=O)N(CC(=O)N1CCc2sccc2[C@@H]1COc1ccc(F)cc1)CC(C)C | -6 | 0.94
18 | O=C(Cn1cc(F)ccc1=O)Nc1ccnn1C1CCCC1 | 15 | -1.92
19 | CO[C@H]1C[C@H](C(=O)Nc2cc(Cl)ccc2C(C)(C)C)N(S(C)(=O)=O)C1 | -14 | 1.8
20 | Cc1nc(-c2nnn(-c3cccc(Cl)c3)c2C)sc1C(=O)NCC(C)C | -5 | 0.92
21 | O=C(CCC1CCCC1)NCC(=O)N1CC[C@H](N2CCCC2=O)C1 | 2 | -0.47
22 | Cc1cc(C(=O)N[C@H]2CCN(Cc3cccc4nonc34)C[C@@H]2O)no1 | 4 | -0.52
23 | CC(C)(C)c1noc(OCc2cccc(C#N)c2)n1 | 36 | -1.51
24 | C[C@@H](CNC(=O)CCc1ncccn1)C1CCCCC1 | 0 | 0.03
25 | O=C(Cc1csc(-c2ccoc2)n1)N1CCC[C@H]1CO | -9 | 1.3
26 | COc1ccccc1CC(C)(C)C(=O)NS(=O)(=O)c1cccnc1 | -5 | 0.59
27 | Cc1nnc(CNc2ccc(Oc3nc4ccccc4s3)c(Cl)c2)s1 | -6 | 1.07

Row | SMILES | % Inhibition [%] | Z score
28 | Cc1ccccc1CNC(=O)CN(C(C)C)C1CCOCC1 | 42 | -2.56
29 | CC[C@H](C)N(CC(=O)O)C(=O)c1ccc(C)cc1F | -4 | 0.84
30 | Cc1ccc(S(=O)(=O)N2CCC[C@H](C(=O)NC3CC3)C2)cc1F | 1 | -0.17
31 | COc1ccc(-n2c(-c3ccccc3)cc(C(=O)N3CCN(S(=O)(=O)c4ccc(C(C)(C)C)cc4)CC3)c2C)cc1OC | 4 | -0.52
32 | O=C(N[C@@H]1CN(Cc2ccccc2C(F)(F)F)C[C@H]1CO)C1CCC1 | 0 | 0.06
33 | Cc1cccc(C(=O)NCc2nc([C@H]3CC(=O)N(Cc4ccc(F)cc4)C3)no2)c1 | -12 | 1.32
34 | O=C1CN(C(=O)c2cnn(Cc3ccccc3)c2)c2ccncc2N1 | 32 | -3.63
35 | CN(CCNS(N)(=O)=O)Cc1ccc(F)cc1 | -4 | 0.59
36 | CC(O)CN(C)C(=O)C1N(C(=O)OC(C)(C)C)CC12CCOCC2 (stereo unspecified) | 1 | -0.18
37 | CC(C)n1ncnc1-c1ccc2c(c1)OCCO2 | -19 | 2.04
38 | O=C(O)c1c2c(nc3ccccc13)C(=Cc1cccc(C=C3CCCc4c3nc3ccccc3c4C(=O)O)c1)CCC2 | 2 | -0.26
39 | CN(CC(=O)NC(C)(C)C)C1CCCC1S(C)(=O)=O (stereo unspecified) | -6 | 1.05
40 | COCCCNC(=O)[C@@H]1CC2(CCN(C(=O)c3cccn3C)CC2)C(=O)N1C | -10 | 1.38
41 | Cc1cc(NC(=O)C(C)(C)NC(=O)c2cccs2)cc2sc(N)nc12 | -7 | 0.8
42 | CC(=O)N1CC(NC(=O)c2ccc(S(C)(=O)=O)cc2)C1 | -18 | 2.19
43 | O=C(Cn1cnnn1)Nc1cc(OCc2ccccc2)ncn1 | -12 | 2.19
44 | Cc1cc(O)c(C(=O)O)c(/C=C/c2cccc(O)c2)n1 | 2 | -0.31
45 | O=C(CCc1cccc(F)c1F)NC1(C(=O)O)CCC1 | -8 | 1.41
46 | O=S(=O)(NCCCl)Nc1ccc(Br)cc1.O=S1(=O)NCCN1c1ccc(Br)cc1 | 3 | -0.5
47 | CCc1nnc(CNC(=O)Nc2ccc3c(c2)cc(C)n3CC)o1 | -6 | 0.61
48 | O=C(NCc1ccc(Cl)cc1)c1cccc(NC(=O)c2nnc(COc3ccc(F)cc3)s2)c1 | -9 | 0.94
49 | COc1cc(C(=O)N(C)c2ccc(N(C)C)cc2)cc(OC)c1OC | -6 | 0.95
50 | COc1ccccc1CNC(=O)Cn1cc(-c2ccccc2)c2ncnc(N3CCOCC3)c21 | 11 | -1.6
51 | CC(C)(C)N1C[C@@H](C(=O)Nc2n[nH]c(Cc3ccc(F)cc3)n2)CC1=O | -6 | 0.9
52 | CCCc1noc(-c2cccn3c(CNC(=O)c4ccc(C)cc4)nnc23)n1 | -1 | 0.13
53 | CCc1ncc(CN(C)C[C@H]2CCN(c3ccccc3)C2)cn1 | -8 | 1.51
